Source: paper PMC4336329 (PLoS ONE, 2015)
About 2,200 (0.71%) of roughly 310,000 compounds showed an effect of 50% or more. The effect is printed as a negative number. This is one part of the list.

biological target: human ether-à-go-go-related gene (hERG) potassium channel (human, UniProt Q12809); assay: primary screen, population patch clamp on CHO cells stably expressing hERG
Sequence (Q12809 whole entry, looked up): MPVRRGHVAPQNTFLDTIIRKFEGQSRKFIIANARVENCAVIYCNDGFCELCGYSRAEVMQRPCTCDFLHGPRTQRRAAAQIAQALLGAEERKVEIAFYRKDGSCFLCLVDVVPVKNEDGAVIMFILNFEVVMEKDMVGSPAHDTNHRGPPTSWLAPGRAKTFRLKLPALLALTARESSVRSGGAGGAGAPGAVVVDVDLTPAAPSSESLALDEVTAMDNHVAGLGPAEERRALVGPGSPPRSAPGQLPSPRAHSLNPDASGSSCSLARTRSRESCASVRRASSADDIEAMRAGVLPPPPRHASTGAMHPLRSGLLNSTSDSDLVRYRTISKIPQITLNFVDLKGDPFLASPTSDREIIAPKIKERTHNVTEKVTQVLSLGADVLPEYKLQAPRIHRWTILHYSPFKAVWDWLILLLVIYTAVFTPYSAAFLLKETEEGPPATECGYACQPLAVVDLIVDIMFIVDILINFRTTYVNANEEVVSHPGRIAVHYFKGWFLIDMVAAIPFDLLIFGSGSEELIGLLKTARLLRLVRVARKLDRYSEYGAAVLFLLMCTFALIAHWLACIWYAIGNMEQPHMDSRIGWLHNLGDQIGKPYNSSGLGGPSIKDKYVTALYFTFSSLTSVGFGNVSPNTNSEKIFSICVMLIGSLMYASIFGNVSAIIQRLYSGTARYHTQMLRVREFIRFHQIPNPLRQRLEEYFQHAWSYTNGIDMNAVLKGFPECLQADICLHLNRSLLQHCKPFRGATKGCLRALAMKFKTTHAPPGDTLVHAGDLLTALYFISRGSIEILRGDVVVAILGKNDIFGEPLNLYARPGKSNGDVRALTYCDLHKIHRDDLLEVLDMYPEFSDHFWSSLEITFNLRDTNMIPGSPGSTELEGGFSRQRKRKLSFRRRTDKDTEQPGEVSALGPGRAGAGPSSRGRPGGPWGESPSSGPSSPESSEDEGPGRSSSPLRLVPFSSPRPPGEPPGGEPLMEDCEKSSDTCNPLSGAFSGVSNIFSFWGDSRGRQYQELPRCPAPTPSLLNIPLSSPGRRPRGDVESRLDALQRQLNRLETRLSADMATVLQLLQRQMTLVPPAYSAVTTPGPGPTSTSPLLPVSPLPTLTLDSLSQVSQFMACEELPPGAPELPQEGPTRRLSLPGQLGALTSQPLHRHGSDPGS

Row | SMILES | hERG current change (%, negative = inhibition) at 1uM [%]
1 | O=c1[nH]c(=O)n(Cc2ccccc2)c(O)c1C=NCCCn1ccnc1 | 0.0049
2 | O=C(CN(C(=O)CSc1nc2ccccc2o1)c1ccccc1)NC1CCCCC1 | 8.04
3 | C/C=C/C(=O)OCC(=O)Nc1nc2ccc(C)cc2s1 | 0.215
4 | Cc1cc(C)n2nc(SCC(=O)c3cc(C)n(-c4cc(C)on4)c3C)nc2n1 | -20.2
5 | CC(=O)Nc1c(C(N)=O)oc2ccc(Cl)cc12 | 7.95
6 | COC(=O)C1=CN(Cc2cccs2)C=C(C(=O)OC)C1c1cccc(Cl)c1 | 13.4
7 | Oc1ccccc1N1CCN(c2nc(-c3cccs3)nc3ccccc23)CC1 | 7.46
8 | CS(=O)(=O)N(CC(=O)N1CCc2ccccc2C1)c1cccc([N+](=O)[O-])c1 | 2.04
9 | C/C(=N\NC(=O)c1cccnc1)c1ccc(-n2ccnc2)cc1 | -12.7
10 | COc1ccc(-c2nc(CS(=O)(=O)CC(=O)NC3CCCCC3C)c(C)o2)cc1 (stereo not shown) | 15.5
11 | CSc1nsc(SCC(=O)Nc2cccc(C(=O)O)c2)n1 | 5.11
12 | CN(C(=O)C(Cl)Cl)c1ccc(OC(=O)c2ccco2)cc1 | 16.6
13 | Cc1cc2ncc(C(N)=O)cn2n1 | 6.64
14 | N#Cc1ccccc1CSc1nc(O)cc(=O)[nH]1 | 15.5
15 | COc1ccc(/C=N/NC(=O)c2cc3cc(OC)c(OC)cc3[nH]2)cc1 | 4.63
16 | Cc1ccc(NC(=O)Nc2ccon2)cc1Cl | 12.6
17 | CCOC(=O)c1c(CC(C)C)csc1NC=O | 16
18 | Oc1c(Br)cc(/C=N/n2c(-c3ccccc3)n[nH]c2=S)c(O)c1Br | 11.3
19 | CC(NC(=O)c1cccc(Cn2cc([N+](=O)[O-])cn2)c1)c1ccc(C(C)(C)C)cc1 (stereo not shown) | -1.58
20 | CCC(C)NC(=O)/C=C1\Sc2ccccc2NC1=O (stereo not shown) | 2.98
21 | O=C(N/N=C\c1cccc(OC(=O)c2ccco2)c1)c1ccc2c(c1)OCO2 | -6.14
22 | CCCCCCCNC(=O)CC(NS(=O)(=O)c1ccc(NC(C)=O)cc1)C(C)C (stereo not shown) | 9.01
23 | Cc1ccc(C)c(C(=O)COC(=O)c2cc([N+](=O)[O-])ccc2N2CCOCC2)c1 | 8.61

Row | SMILES | hERG current change (%, negative = inhibition) at 1uM [%]
24 | Cc1cc(-c2ccccc2)n(-c2ccc(C(=O)NC(C)C)cc2)n1 | 17.8
25 | CCOC(=O)c1cnc2ccc(OCC)cc2c1N1CCN(c2ccccc2OC)CC1 | 7.97
26 | Cc1cccc(NC(=O)C2CCCN(C(=O)Nc3ccc(F)cc3)C2)c1 (stereo not shown) | 10.6
27 | Cn1c(=O)n(CC(=O)[O-])c(=O)c2c1nc1n2CCS1 | 12.9
28 | O=C(Nc1cccnc1)c1ccc(COCC(F)(F)F)cc1 | 10.3
29 | COc1ccc(CN2CCNC(=O)C2CC(=O)N(C)CCC2CCOCC2)c(OC)c1 (stereo not shown) | 12.8
30 | CC(C)(C)C(=O)N1CCN(c2ncnc3scc(-c4ccccc4)c23)CC1 | 6.67
31 | O=C(NCc1ccccc1)c1ccco1 | 4.15
32 | O=C(CSc1nnnn1-c1ccc2c(c1)CCC2)NCc1cccs1 | 10
33 | CNC(=O)[C@H]1O[C@@H](n2cnc3c(NCc4cccc(I)c4)nc(Cl)nc32)[C@H](O)[C@@H]1O | 10.4
34 | CCOc1cc2[nH]c(=S)n(Cc3ccc(C)o3)c(=O)c2cc1OCC | -3.56
35 | COc1cccc2c1cc1c(=O)n(CC(=O)N3CCCCCC3)nc(C)n12 | 8.14
36 | CCC1CCCCN1CCCNC(=O)CNC(=O)Cn1ccc2ccccc2c1=O (stereo not shown) | 12.3
37 | C=CCn1c(N)c(C(=O)N2CCN(C)CC2)sc1=S | -4.41
38 | C#CCNC(=O)C1=C[C@@H](c2coc3ccccc3c2=O)C[C@@H](OCCCCO)O1 | 15.5
39 | CCCCNC(=S)Nc1ccc(-c2nc3ccc(C)cc3s2)cc1 | 7.89
40 | CCOc1nc(OCC)c2cnn(C)c2n1 | 8.24
41 | O=C(c1cnc2c(c1)COc1ccc(Cl)cc1-2)c1ccccc1O | 0.0871
42 | O=c1cc(CN2CCN(c3ccc(O)cc3)CC2)nc2scc(-c3ccccc3)n12 | 13.3
43 | Cn1ncc2c(O/N=C(\N)c3ccc(C(F)(F)F)cc3)ncnc21 | 9.69
44 | CCOc1ccc(S(=O)(=O)N2CCc3ccccc3C2)cc1 | 12.3
45 | CCOc1c(Cl)cc(CNCC(C)C)cc1OC.Cl | 2.77
46 | CN(C)c1ccc(C(=S)N2CCCCC2)cc1 | 9.84

Row | SMILES | hERG current change (%, negative = inhibition) at 1uM [%]
47 | Fc1cccc(CNC2CCN(CCc3ccccc3)CC2)c1 | 3.85
48 | Cc1ccc(-n2c(C)cc(/C=N/NC(=O)CN(c3ccc(C)cc3C)S(C)(=O)=O)c2C)cc1 | 2.6
49 | CCOc1cc2c(cc1OC)C(c1cccc([N+](=O)[O-])c1)NCC2 (stereo not shown) | 1.03
50 | COC(=O)C1CCN(C(=O)COC(=O)Cn2cnnn2)CC1 | 19.9
51 | CCN(CC)C(=O)c1ccc(NS(=O)(=O)c2ccccc2)cc1 | 11.5
52 | Cc1ccc(S(=O)(=O)NC(CC(=O)O)c2cccs2)cc1 (stereo not shown) | 15.8
53 | COc1ccc(C(=O)NC(=S)N2CC(C)OC(C)C2)cc1 (stereo not shown) | 7.17
54 | CN(C)/C=N/c1cc(=O)n(C)c(=O)n1CC1CC1 | 17.5
55 | Cc1ccc(/C=N\NC(=O)Cc2cccn2C)o1 | 7.93
56 | O=C(CN1CCCCCC1)N1c2ccccc2Sc2ccccc21 | 19.8
57 | O=C(CSc1ncn[nH]1)c1cccc([N+](=O)[O-])c1 | 11.5
58 | CCOC(=O)N1CCN(CC(=O)Nc2sccc2C#N)CC1 | 4.5
59 | O=C(Nc1nccs1)C1C2/C=C\CCCCC21 (stereo not shown) | 10.3
60 | C[C@@]1([C@@H](NC(=O)c2cccs2)c2ccc(-c3ccccc3)cc2)C[C@H]1C1CCCCC1 | 16.3
61 | Cn1c(N)c(C(=O)Nc2ccc3ccccc3c2)sc1=S | 2.05
62 | CC(C)N(Cc1ccccc1)C(=O)COC(=O)c1ccc(O)cc1 | 6.51
63 | Cc1ccc2c(CN3CCN(Cc4ccccc4)CC3)cc(=O)oc2c1 | -84
64 | COn1cnnc1-c1ccccc1 | 6.55
65 | CC(NC(=O)C(=O)NCCN1CCN(C(=O)c2ccc([N+](=O)[O-])cc2)CC1)c1ccccc1 (stereo not shown) | -67.8
66 | COc1ccc(NCc2nnc(SCC(=O)NNC(=O)c3ccc(C)cc3)n2C)cc1 | 6.44
67 | O=[N+]([O-])c1ccc(COc2ccc(CNc3ccccc3)cc2)cc1 | 10.6
68 | Cc1ccc(/C=N/Nc2nc(N3CCOCC3)nc(N3CCOCC3)n2)o1 | 10.6
69 | CCN1CCN(C(=O)CN(C)S(=O)(=O)c2cc(C)ccc2OC)CC1 | 10.4

Row | SMILES | hERG current change (%, negative = inhibition) at 1uM [%]
70 | COc1ccc(N2CCN(S(=O)(=O)c3cccc(C(F)(F)F)c3)CC2)cc1 | 3.05
71 | O=C(Nc1ncccc1O)c1cccc(S(=O)(=O)N2CCCc3ccccc32)c1 | 7.7
72 | COc1ccccc1N1CCN(Cc2ccc(Br)cc2)CC1.O=C(O)C(=O)O | -6.63
73 | CCOC(=O)c1ccc2c(c1)N(Cc1ccccc1C)C(=O)c1ccccc1S2=O (stereo not shown) | -1.62
74 | Cc1nn(CCCC(=O)NCCCN2CCN(C)CC2)c(=O)c2c1sc1ccccc12 | 15.1
75 | COCc1ccc(-c2c(-c3cc(OC)cc(OC)c3)oc(=O)c3cc(OC)c(OC)cc23)cc1 | 7.32
76 | CCCCC(=O)Nc1ccc(C(=O)Nc2ccc(S(=O)(=O)N3CCCC3)cc2)cc1 | 13.5
77 | C/C=N/NC(=O)CCCC(=O)N/N=C/C | 2.51
78 | O=C(NC1CCCCC1)C1CCC(=O)N(C2CC2)C1 (stereo not shown) | 15.5
79 | Cc1ccc(NC2CCCN(C(=O)C3CCCC3)C2)cc1C (stereo not shown) | 17.9
80 | CCn1ccnc1CNC(=O)c1ccc(OC2CCN(C(=O)COC)CC2)cc1 | 16
81 | CN1CCc2c(sc3c2C(=O)NC(/C=C\c2ccccc2)N3)C1 (stereo not shown) | -6.22
82 | O=C(/C=C/c1ccc2c(c1)OCCO2)N1CCN(c2ccc(F)cc2)CC1 | 13.8
83 | CCN(CC(=O)Nc1sc2c(c1C#N)CCCC2)Cc1nc2ccccc2c(=O)[nH]1 | 10.8
84 | CCCCOC(=O)Nc1nnc(Cc2ccc(Cl)cc2)s1 | 9.6
85 | O=c1c2cn[nH]c2nc(SCc2ccccc2F)n1-c1ccc(Br)cc1 | 9.14
86 | COc1ccccc1CNC(=O)CCNS(=O)(=O)c1ccc2[nH]c(=O)oc2c1 | 12.8
87 | CCCCn1nnnc1SCC(=O)NCc1ccco1 | 8.51
88 | Fc1ccc2c(c1)C(c1ccc(N3CCOCC3)cc1)=NNC(c1cccs1)=N2 | 6.09
89 | O=C(Nc1nc(-c2ccco2)c(-c2ccco2)s1)c1cnccn1 | 7.77
90 | Nc1nc(SCc2nc3scc(-c4cccs4)c3c(=O)[nH]2)n[nH]1 | 18.2
91 | Nc1[nH]c(N=NC(=O)c2ccccc2)c2ccccc12 | 10.1
